Test results reported in the CheMixHub viscosity set.
Further values from the same series stand in other lists.

Assay: xn = mol fraction of the nth substance listed
Details: 101 kPa

CC(=O)N(C)C + O
viscosity [mPa·s]
Details	298.15 K	303.15 K	308.15 K	313.15 K	318.15 K
x1 = 0.0203	–	–	0.9614	0.8638	0.7808
x1 = 0.0212	1.25	–	–	–	–
x1 = 0.0502	–	–	1.27	1.127	1.007
x1 = 0.0703	–	–	1.499	1.32	1.17
x1 = 0.0769	2.025	–	–	–	–
x1 = 0.1	–	–	1.826	1.593	1.402
x1 = 0.1203	–	–	2.044	1.774	1.553
x1 = 0.1497	–	–	2.32	2	1.741
x1 = 0.163	3.213	–	–	–	–
x1 = 0.1698	–	–	2.477	2.127	1.845
x1 = 0.2003	–	–	2.672	2.287	1.977
x1 = 0.22	–	–	2.758	2.358	2.035
x1 = 0.2272	3.8	–	–	–	–
x1 = 0.2497	–	–	2.836	2.422	2.09
x1 = 0.2701	–	–	2.851	2.437	2.103
x1 = 0.3	–	–	2.829	2.422	2.094
x1 = 0.3131	3.867	–	–	–	–
x1 = 0.32	–	–	2.789	2.392	2.072
x1 = 0.3501	–	–	2.701	2.325	2.019
x1 = 0.4002	–	–	2.503	2.17	1.897
x1 = 0.4299	3.211	–	–	–	–
x1 = 0.4503	–	–	2.278	1.992	1.754
x1 = 0.5003	–	–	2.045	1.804	1.602
x1 = 0.5999	–	–	1.651	1.481	1.335
x1 = 0.6373	2.082	–	–	–	–
x1 = 0.7	–	–	1.345	1.224	1.118
x1 = 0.7881	1.58	–	–	–	–
x1 = 0.8002	–	–	1.116	1.028	0.9498
x1 = 0.8499	–	–	1.029	0.9522	0.8841
x1 = 0.8999	–	1.029	0.9541	0.8867	0.8267
